The text below walks through data of the supplement of paper PMC11417369.

This is one part of the list.

The test has as its system PF3D7_0420300 AP2 domain 1 (GST-tagged). Description: gcPBM binding intensity (ln(normalized median fluorescence intensity)); higher = stronger DNA binding. Put shortly:
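GST-tagged P. falciparum DNA-binding domains produced in E. coli were incubated for 1 h on an Agilent 4 × 180k array of primer-extended double-stranded 36-bp intergenic genomic probes with negative controls. Binding intensity is the highest Masliner-normalised natural-log median intensity across replicate spots of either probe orientation, with bound protein detected by Alexa488 anti-GST antibody at 488 nm.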
As for “ATTTACGCGCTTATTACACACACATACAAATAAGGA [CACACA_site9157]”, the “gcPBM binding intensity (ln)” value came out at 9.77. Under “TTTTAATATTAAGATGTCTTTTACGTTTATTTTGTA [CACACA_negctrl_site765]” stands 9.23; under “TAATTATTTGCCCTTACTCTGAACATTCGGAATTTA [CACACA_negctrl_site1278]”, 9.25. In the case of “ATCTGCATATATATATGTACATATTTTAGAATGCAC [XGTACX_site708]”, the “gcPBM binding intensity (ln)” value is 9.1. Turning to “TTCTTTTTAAATTACACACACATATAAATATGTATA [CACACA_site7618]”, the “gcPBM binding intensity (ln)” value came out at 9.66. Under “TTTATGTGTTATAAATGTACATAATATAATTCGTAT [XGTACX_site3845]” stands 9.21; under “TTTTTTTTATTTTGTTGTACGCTTATTTGTATATAT [XGTACX_site7325]”, 9.67. Next, “TTATCTATAAATACGAGTACGCAAAATCATATAATA [XGTACX_site2447]”: 9.17; “TTATTTTTTTTTTTTTGTACACAATTTGACACATTA [XGTACX_site7983]”: 9.24.

With “TTTATTTAATTATGTTGTACATGTAGGATTTATTTT [XGTACX_site7078]”, the “gcPBM binding intensity (ln)” value was 9.22.

Take “AAAAAGGAAATAATAACACACATTAATAATTATAAA [CACACA_site3401]”: the “gcPBM binding intensity (ln)” value was 9.6. For “TAAAAAGTTATATTCACACACATACACATATAAATA [CACACA_site6398]”, the “gcPBM binding intensity (ln)” value was determined as 9.76.

“AATTATAAATCTTGCACACAAAAAAAATAATAAAAA [CACACA_site2434]”: the “gcPBM binding intensity (ln)” value worked out at 9.48. Next, “TAATAAATAATGGTTACACACAAAATATAAAACTTA [CACACA_site3544]”: 9.48; “TAAACACATATATAGACATGCAACTAGTTTTTATAA [TGCATGCA_site474]”: 9.23; “AAATCTTTGTGTGGATGTACTTTTATAAAAAAGAAT [XGTACX_site3830]”: 9.05.

With “TCTGTTCTTTTTTAATGTACAAGAAATATAAAATTC [XGTACX_site3600]”, the “gcPBM binding intensity (ln)” value was found to be 9.04. For “AATTTTTAGTATATAACATAAAATAAAATAAAATAA [GTGCAC_negctrl_site696]”, the “gcPBM binding intensity (ln)” value is 9.03. Under “TTTTTTTTTATTTGTTGTACGAGGTTTTAAAATTTT [XGTACX_site106]” stands 9.35; under “TATAATATTCTATATGCATGTACACCATTCTTTATT [TGCATGCA_site688]”, 9.43. Take “ACAATATCTAGATACACACACATATCTCTCAATCTA [CACACA_site656]”: the “gcPBM binding intensity (ln)” value is 9.76. Next, “TATTGTTATCTTTTATGTACTTAAAAAAATAAATTT [XGTACX_site4233]”: 9.13; “AAAAAGGTTATTGGTACACACATATGTATATAAATA [CACACA_site6402]”: 9.46. As for “TAATAAAACATATATACACACATTATATATACATAT [CACACA_site8495]”, the “gcPBM binding intensity (ln)” value is 9.6. Next, “GTAGGCATTAAAAAATGTACAAAATATTATGAATTG [XGTACX_site1615]”: 9.17.

For “GTTAAAAAAAGGAGAGATCTCACACAAATATATATA [GTGCAC_negctrl_site117]”, the “gcPBM binding intensity (ln)” value is 9.22. Turning to “CATTTAATAATAACAAGTACACAAAGATGTATAACA [XGTACX_site8315]”, the “gcPBM binding intensity (ln)” value amounted to 9.38.

In the case of “CATAAATACTATATATGTACGTAATTTTTAAAACAT [XGTACX_site7710]”, the “gcPBM binding intensity (ln)” value turned out to be 9.25. Under “ATGATAAATATAAGTTGTACATATATCTATGTGCAT [XGTACX_site6010]” stands 9.26; under “AATATATATGAAAAAAGTACTCAAGGAATAAAAAAA [XGTACX_site7720]”, 9.42. Under “GGGTGCCAAATTAGCACACACATATATACCTGAATT [CACACA_site5551]” stands 9.55. Consider TATATATATATATATGTGCGCATTACTTTAAGAATA, for which the “gcPBM binding intensity (ln)” value worked out at 9.09. For the sequence “TTACAAATAATTTGTTGTACGCTTTTTTTCTTTTTT [XGTACX_site7199]”, the “gcPBM binding intensity (ln)” value is 9.48. “ATTTTTTTGTTAATTTGTACATAAAATTTTATTTTA [XGTACX_site7007]”: the “gcPBM binding intensity (ln)” value came out at 9.19.

Regarding “ATATTTATTTTATAAAGTACTAAAAAATATATTATA [XGTACX_site8522]”, the “gcPBM binding intensity (ln)” value stood at 8.77. Next, “AAAAAAAAAAAAAAAACACACAAACGCTTTTTTTTT [CACACA_site4545]”: 9.36; “GGATAAGAGGCATATACACACAATTTAAAAAAATAA [CACACA_site4657]”: 9.46. Turning to “ATAAATATTGCGTGCACACACATAATATTTATATAT [CACACA_site7136]”, the “gcPBM binding intensity (ln)” value came to 9.47. Under “TATAATATATTCATGTGTACATATATTTCGAACATA [XGTACX_site1754]” stands 9.2; under “CGAAAAATATGTATGAGTACTTATATTTAAACTATA [XGTACX_site1911]”, 9.14; under “ATGTCATAAAAACATATACACACTTGAAATATAAAA [CACACA_site2329]”, 9.41.

“CATTCCTATTATTATACACACAAATTAAGAATTCAA [CACACA_site787]”: the “gcPBM binding intensity (ln)” value is 9.3. In the case of “AATAGTTGCTAAAGGTGTACAATACATTTATTAGAA [XGTACX_site2773]”, the “gcPBM binding intensity (ln)” value turned out to be 9.29.

As to “TATTACTTAAATAAAAGTACATATAACATTTTAGTT [XGTACX_site196]”, the “gcPBM binding intensity (ln)” value is 9.06. With “TGTATAGTCTAAAGTTGTACAAAAAAAAAAAAAAAA [XGTACX_site5764]”, the “gcPBM binding intensity (ln)” value is 8.67. Next, “TCTTTGGTATTTACATGTACATATTCTTAAAAACAT [XGTACX_site3124]”: 9.33; GAAAATAAAATATTAGTGCATTATTTGATCAATAAT: 9.11; “TATATTTATACTTATACACACATTATTGAATTAACC [CACACA_site934]”: 9.52. Take “ATTATTTATATTTGGAGTACTTATAATATTTTTATA [XGTACX_site1289]”: the “gcPBM binding intensity (ln)” value turned out to be 9.27. Regarding “CTTTATATATTTTATTGTACTTAAAAAAAAAAAAAA [XGTACX_site2134]”, the “gcPBM binding intensity (ln)” value is 8.63. For the sequence “AAAAAATATGCATATACACACATATGTATAAATAAC [CACACA_site7090]”, the “gcPBM binding intensity (ln)” value was 9.65. Next, “AAAATATTTATTCCTAGTACTTACCATTATATATAT [XGTACX_site363]”: 9.37; “AAAAAAAAATGAAAAGAAAAAAAAAGAAAAAAGGGA [CACACA_negctrl_site287]”: 9.66. Under “TATAGGTATTTGTATACACACAAATGTATATATCTA [CACACA_site6713]” stands 9.31; under “AGTGTAAGCTAAGTGGTGCGTTGAATAAGGTTTTTT [GTGCAC_site9951]”, 9.31.

“ATAAATAAAACAAATAGTACAATATAAAAAAAAAGG [XGTACX_site87]”: the “gcPBM binding intensity (ln)” value is 9.81. Regarding “AAGAGGATACACAATGTGCACTTTTTTTTTTTTTTT [GTGCAC_site9415]”, the “gcPBM binding intensity (ln)” value turned out to be 9.27.
